Hit rate of the full screen: of about 46,000 compounds, about 60 (0.1%) were called active. Inconclusive results (about 3%) are left out. The call rests on the fitted dose curve; in most records, active means well fitted inhibition curve with a large enough effect; inconclusive means small, poorly fitted or top-dose-only effect; inactive means no such curve, though single readings can be large or run the other way. This is one part of the list.
Experiment: Primary qHTS assay for Inhibitors of ovarian cancer metastasis using an organotypic tumor microenvironment (TME) model. Further: nearly all actives have a fitted effect of over 65% in size.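 On activity change, negative = inhibition: plate controls were DMSO wells for no effect and tomatine positive control wells for full effect.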
Conditions: SKOV3ip1-GFP adhesion/invasion on 3D omental model, fluorescence; series mostly up to 45.8 µM; activity change, negative = inhibition: at the top concentration
In short: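 A 3D layer of primary human omental fibroblasts, mesothelial cells, fibronectin and collagen I, grown 48 hr, received SKOV3ip1-GFP cells in serum-free medium plus compounds at 0.36-46 umol/L. After 2 hr RT and 16 hr 37 C, fixed adherent GFP cells were counted; normalized to DMSO and tomatine.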

Activity change, negative = inhibition, inactive:
Cc1cc(NC(=O)CCS(=O)(=O)c2cc(Br)cc3c2N(C(=O)C2CC2)CC3)ccc1Br -6.31%
Cc1ccc(NC(=O)Cn2nc(-c3ccncc3)ccc2=O)cc1Cl 0.403%
CC(C)CCNC(=O)CSc1nc2ccccc2nc1Cc1ccccc1 18.3%
COc1ccc(Cn2c(=O)c3cccnc3n(CC(=O)Nc3ccc(C)c(F)c3)c2=O)cc1 -20.9%
O=C(Nc1c(C(=O)Nc2ccc(F)cc2)oc2ccccc12)c1cc2ccccc2o1 30.4%
COc1cc2c(cc1OC)C(COc1ccc3c(C)cc(=O)oc3c1)N(C(=O)C(C)C)CC2 (stereo unspecified) 1.18%
Cc1cc(Oc2c(C(F)(F)F)oc3c(CN4CCC(C)CC4)c(O)ccc3c2=O)cc(C)c1Cl 2.27%
CCc1ccc(NC(=O)Cn2nc3c4ccccc4n(Cc4ccccc4)cc-3c2=O)cc1 -1.1%
CCOc1ccc(-c2cc(OC(=O)c3ccc(OC)cc3)c3c(C)oc(C)c3c(=O)c2)cc1 2.03%
O=C1CC(c2cccc(O)c2)c2c(nc(SCc3ccccc3F)[nH]c2=O)N1 (stereo unspecified) -0.082%
CCc1nc2ccc(C(=O)N3CCN(c4cccc(C)c4C)CC3)cc2nc1CC -1%
Cc1ccc(-c2nc3c4ccccc4[nH]c(=O)n3n2)cc1 -2.83%
O=C(c1ccc(CSc2nc3ccncc3n2Cc2ccc(F)cc2)cc1)N1CCCCCC1 14.5%
COCCCNC(=O)c1cc2c(=O)oc3ccc(C)cc3c2s1 -5.86%
CCc1cccc(-n2c(C)nc3c(cnn3-c3ccc(C)c(C)c3)c2=O)c1 -1.06%
CCOc1ccc(NC(=O)CSc2nc(C)c(C(=O)Nc3ccccc3)c(-c3ccc(Cl)cc3)c2C#N)cc1 4.08%
CCOc1ccccc1CNC(=O)c1cc2n(n1)CCCN(Cc1ccc(C)cc1)C2=O -3.44%
CCc1ccccc1NC(=O)Nc1ccc2c(c1)N(CC)C(=O)c1ccccc1S2 -4.22%
COc1cc(OC)c(NC2(c3ccccc3)C(=O)c3ccccc3C2=O)cc1Cl -3.94%
CCn1c2ccccc2c2cc(CN3CCN(Cc4ccccc4Cl)CC3)ccc21 8.74%
O=C(Nc1ccc(OC(F)(F)F)cc1)c1nc2ccccc2nc1N1CCCCC1 1.4%
CN(C)CCNc1ncnc2c1cnn2-c1cccc(Cl)c1 6.2%
CSc1ccc(CCNC(=O)Cn2ccc3cc(S(=O)(=O)N4CCCCCC4)ccc32)cc1 -34.7%
Cc1c(C(=O)Nc2ccc(C(=O)O)cc2)nnn1-c1ccccc1 -1.87%
Cc1c(Cl)cccc1NC(=O)c1ccc2c(c1)CCN2S(=O)(=O)c1ccccc1 13.6%
O=C(Nc1nc2n(n1)C(c1ccc(F)cc1)C=C(c1ccccc1)N2)c1ccco1 (stereo unspecified) -8.28%
CCCCSc1nnc2c(n1)OC(c1ccc(Br)s1)N(C(C)=O)c1ccccc1-2 (stereo unspecified) -2.66%
Nc1c(C(=O)Nc2ccc(OC(F)(F)F)cc2)sc2nc(-c3ccncc3)ccc12 1.64%
CCOc1ccccc1-c1noc(CSc2nnc(-c3ccccc3)n2-c2ccc(F)cc2)n1 0.887%
COC(=O)c1c(NC(=O)c2nc(SCc3ccc(F)cc3)ncc2Cl)sc2c1CCCC2 0.0438%
COc1ccc(NC(=O)CN2C(=O)COc3ccc(S(=O)(=O)N4CCCCCC4)cc32)cc1 1.35%
Cc1ccc(C)c(N2CCN(c3c(CN4CCCC4)c(=O)oc4ccccc34)CC2)c1 -18.9%
CCCC(=O)Nc1ccccc1OCc1cc(=O)n2cc(C)ccc2n1 -3.29%
Cc1ccc(CCNC(=O)c2ccc3c(Cl)c4c(nc3c2)CCCC4)cc1 4.31%
O=C(Nc1cccc(Cl)c1Cl)c1cc(S(=O)(=O)NCc2ccc3c(c2)OCO3)ccc1F 0.572%
Cc1cc(C)cc(NC(=O)CCS(=O)(=O)c2cccc3nsnc23)c1 27.1%
COc1ccc(CC(=O)N2CCc3cc(OC)c(OC)cc3C2COc2cc(C)cc(C)c2)cc1OC (stereo unspecified) -24.5%
Cc1cccc(C)c1Nc1nn2c(=O)c3cc4c(cc3nc2s1)OCO4 3.13%
COc1cccc(NC(=O)C(=O)NCC(c2ccc3c(c2)OCO3)N2CCN(C)CC2)c1 (stereo unspecified) -0.492%
CCc1ccc(N(CC)C(=O)c2cc3c(=O)oc4ccc(C)cc4c3s2)cc1 6.19%
CC(=O)c1ccc(NS(=O)(=O)c2cccc(S(=O)(=O)c3ccc(Cl)cc3)c2)cc1 3.94%
COCCNc1oc(-c2ccccc2)nc1S(=O)(=O)c1ccc(Br)cc1 0.141%
COc1ccc2oc(=O)c(C(=O)NCCc3c(C)[nH]c4ccc(F)cc34)cc2c1 12.5%
COc1cccc(-c2nc(S(=O)(=O)c3ccc(Cl)cc3)c(NCc3ccccc3)o2)c1 2.82%
CCc1ccc(-c2cn3c(n2)sc2cc(C(=O)NC4CCCCC4)ccc23)cc1 -3.09%
CC(=O)Nc1ccc(NS(=O)(=O)c2c(C(=O)N3CCC(C)CC3)c(C)n(C)c2C)cc1 -1.12%
CCCCN(CC)CCCNC(=O)c1cc2c(=O)[nH]c3ccccc3c2n1C -28.1%
COc1ccc(NC(=O)CCCSc2nc(-c3ccco3)cc(C(F)(F)F)n2)cc1OC 9.53%
O=C(NCCc1ccccc1Cl)c1sc2ncccc2c1-n1cccc1 -0.731%
CCC(=O)N1c2ccccc2CC1C(=O)NCCc1ccccc1 (stereo unspecified) 0.658%
Cn1c(=O)oc2cc(S(=O)(=O)N3CCCC(C(=O)NCc4ccc(F)cc4)C3)ccc21 (stereo unspecified) -4.62%
CC(C)CCNC(=O)c1cc2cc(S(=O)(=O)N3CCCCC3)ccc2n1C 4.76%
O=C(Nc1ccc(F)c(Cl)c1)N1CC=C(c2c[nH]c3ccccc23)CC1 -7.54%
CC(C)(C)C(=O)Oc1ccc2c(c1)nc(NC(=O)c1cccc([N+](=O)[O-])c1)n2CCCO 7.59%
CC1=C(C(N)=O)C(c2ccccc2Br)n2ncnc2N1 (stereo unspecified) 21.1%
COc1cccc(Cn2nnc3c(=O)[nH]c(C4CCN(C(=O)c5ccccc5Cl)CC4)nc32)c1 -4.69%
CSc1ncc(Cl)c(C(=O)Nc2c(C(=O)Nc3cccc(Cl)c3)oc3ccccc23)n1 -4.09%
CCC(=O)Nc1ccccc1-c1nc2ccccc2n(CC(=O)c2ccc(C)cc2)c1=O -5.08%
COc1ccc(CNC(=O)CCCN2C(=O)COc3ccc(C)cc32)cc1 0.159%
Cc1ccc(N2CCN(C(=O)c3cnc(N4CCCCC4)c4ccccc34)CC2)c(C)c1 1.04%
COc1ccc(-n2nc(C(=O)N3CCCC(C)C3)c3c4ccccc4n(C)c3c2=O)cc1Cl (stereo unspecified) 12.8%
COc1cc(OC)c(NC(=O)CCCn2nc(C)c3c(C)n(-c4ccccc4)nc3c2=O)cc1Cl -10.8%
CCOC(=O)c1ccc(NC(=O)CSc2c3c(nc4cc(Cl)ccc24)CCCC3)cc1 27.5%
Cc1ccc(N2CCn3c2nc2c3c(=O)n(CCCc3ccccc3)c(=O)n2C)cc1C -2.03%
Cc1nn2c(C)c(C(=O)NCc3ccco3)cnc2c1-c1ccccc1 -7.31%
Cc1nn(C(=O)c2ccc(Cl)cc2)c(C)c1S(=O)(=O)N1CCCCCC1 -10.3%
O=C(NC1CC(=O)N(c2ccccc2)C1)c1ccc(S(=O)(=O)N2CCCCC2)cc1 (stereo unspecified) -0.917%
CN(C)c1ccc(/C=C/c2noc(-c3ccccc3O)n2)cc1 10.3%
COc1ccc(C2C(C(=O)Nc3cccnc3)=C(C)Nc3nc(-c4ccccc4)nn32)cc1OC (stereo unspecified) -5.64%
COc1ccc(OCC(=O)NCC(c2ccc(OC)cc2)N2CCCCC2)cc1 (stereo unspecified) 0.872%
O=c1[nH]c(=O)n(C2CCCCC2)c(O)c1C1=Nc2ccccc2SC(c2ccccc2)C1 (stereo unspecified) -0.637%
CCc1ccc(-n2nc(C)c3c(C)cc(=O)n(CC(=O)Nc4ccc(C(C)=O)cc4)c32)cc1 6.05%

outcome, inactive:
CCOC(=O)c1ccc2c(c1)N(C(CC)C(=O)Nc1ccccc1OC)C(=O)c1ccccc1S2 (stereo unspecified)
CCc1ccc(-n2c(=O)c3sc4ccccc4c3n(CC(=O)NC3CCCCC3)c2=O)cc1
CCOC(=O)c1nc(Nc2ccc(C(C)=O)cc2)c2ccccc2n1
Cc1cccc(-n2ccnc2SCC(=O)Nc2ccc(F)cc2F)c1C
O=C(Cn1c(=O)oc2cc(S(=O)(=O)N3CCCCCC3)ccc21)NCc1ccccc1Cl
C[C@H](NC(=O)OC(C)(C)C)c1nnc(SCc2c(F)cccc2Cl)o1
CCOc1ccc(C(=O)N(Cc2sccc2C)C2CCS(=O)(=O)C2)cc1 (stereo unspecified)
COc1cccc(NC(=O)CSc2nc3cc(OC)c(OC)cc3c3nc(-c4ccccc4)nn23)c1
CN(C)c1ccc(C(CNC(=O)c2ccccc2C(F)(F)F)N2CCOCC2)cc1 (stereo unspecified)
Cc1ccc(CN2CCCN(CC(=O)Nc3ccc(C)cc3C)S2(=O)=O)cc1
O=c1c(-c2cc(-c3ccccc3)nc3c2COc2ccc(Cl)cc2-3)coc2ccc(F)cc12
Cc1nn2c(=O)cc(COC(=O)Cc3ccccc3)nc2s1
COc1ccc(CNC(=O)C2CCCN(S(=O)(=O)c3cccc4nsnc34)C2)cc1 (stereo unspecified)
COc1ccccc1CNC(=O)c1ccc2nc(N3CCCCC3)sc2c1
CCC1CN(C(=O)N2CCC(C(=O)Nc3ccccc3F)CC2)c2ccccc2O1 (stereo unspecified)
Cc1ccc(-n2c(=O)cc(N3CCN(c4ccccc4Cl)CC3)[nH]c2=O)cc1
Cc1nn(S(=O)(=O)c2ccc(Br)cc2)c(C)c1S(=O)(=O)N1CCCCCC1
COc1cccc(Cn2c(Oc3cc(C)cc(C)c3)nc3c2c(=O)n(C)c(=O)n3C)c1
COc1cccc(C(=O)Nc2cccc(OCc3cc(=O)n4c5c(sc4n3)CCCC5)c2)c1
COc1ccc2sc(N(Cc3cccnc3)C(=O)c3ccc4c(c3)OCCO4)nc2c1
O=C(NCc1ccccc1Br)c1cnc2sc(N3CCCCCC3)nn2c1=O
CCN(CC)c1nc2ccccc2nc1C(=O)Nc1cc(OC)c(OC)c(OC)c1
COc1ccccc1NC(=O)C1=C(C)Nc2nc(SCc3ccccc3Cl)nn2C1c1ccccn1 (stereo unspecified)
Cc1cccc(OCC(=O)N(Cc2ccc(C(C)(C)C)cc2)Cc2ccco2)c1
